PubChem BioAssay AID2546 (National Center for Advancing Translational Sciences (NCATS), 2010)
Several values for one entry are separate records, joined by “and”; a condition that tells them apart may be missing. Identical values can stand only once. In all, about 310,000 compounds went through this assay and about 11,000 (3.5%) were called active. Inconclusive results, whose numbers are uncertain, are shown with a selection of clear calls. Calls follow the shape of the dose curve; as a rule, active = well fitted inhibition curve with a large enough effect; inconclusive = small, poorly fitted or top-dose-only effect, or effect the other way; inactive = flat fitted curve, though single readings scatter. No potency is given beside an inconclusive call; the fits are too rough.

Assay: VP16 counterscreen qHTS for inhibitors of ROR gamma transcriptional activity;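 also: Gal4-VP16 expression switched on by copper sulfate through the metallothionein promoter; nearly all actives have a fitted effect of over 50% in size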
Details: Drosophila S2 Gal4-VP16 UAS-luciferase, luminescence, 20 h; activity, negative = inhibition: at 53.6 µM (top of the series)
% is scaled to controls: 0 for no effect and ±100 for the full control effect; potency is read from the fitted curve at half-maximal effect; tags tell the direction and shape of the fitted curve.

**Q.** With `COC(=O)c1cc(=O)n(CCc2ccc(OC)c(OC)c2)c(=Nc2ccc(F)c(Cl)c2)s1` as the compound, how does the Potency read?
**A.** inconclusive [inhibitor, single point]

**Q.** Which “activity, negative = inhibition” value does the source give for `C=CCn1c(-c2cccc(OC)c2)nc2nc3ccccc3nc21` here?
**A.** inactive: -4.38%

**Q.** With `CSc1ccc(/C=C/C(=O)c2c(O)cc(C)oc2=O)cc1` as the compound, how does the Potency read?
**A.** inconclusive [inhibitor, single point]

**Q.** With `CNc1nc(N/N=C/c2ccc([N+](=O)[O-])cc2)nc(Nc2ccccc2)n1` as the compound, how does the Potency read?
**A.** inconclusive [inhibitor, single point]

**Q.** Which Potency does the source give for `CC(C)OC(=O)CC(=O)CSc1nc2c(cc1C#N)CCC2` here?
**A.** inconclusive [inhibitor, single point]

**Q.** Which “activity, negative = inhibition” value does the source give for `Cc1ccc(N(C(=O)c2csnn2)C(C(=O)NC2CCCCC2)c2cccnc2)cc1` (centres undefined) here?
**A.** inactive: 2.16%

**Q.** Which Potency does the source give for `NC(=S)NNc1c(F)c(F)c(F)c(F)c1F` here?
**A.** inconclusive [inhibitor, single point]

**Q.** With `Cc1ccc(N(CC(=O)NCc2ccco2)C(=O)CCC(=O)Nc2nccs2)cc1C` as the compound, how does the “activity, negative = inhibition” value read?
**A.** inactive: 4.37%

**Q.** With `CNC(=O)c1c(NC(=O)c2ccc(S(=O)(=O)N3CCCCC3C)cc2)sc2c1CCN(C)C2` (centres undefined) as the compound, how does the “activity, negative = inhibition” value read?
**A.** inactive: 2.61%

**Q.** For `CN(C)CCCNc1ccc(-c2cc(Nc3cccc(Cl)c3)ncn2)cn1`, which “activity, negative = inhibition” value is on record?
**A.** inactive: -2.02%

**Q.** With `Cc1ccccc1NC(=S)NCc1cccn1C` as the compound, how does the Potency read?
**A.** inconclusive [inhibitor, single point]

**Q.** With `CCc1ccnc(NC(=O)NS(=O)(=O)c2ccc(C)cc2)c1` as the compound, how does the “activity, negative = inhibition” value read?
**A.** inactive: -8.33%

**Q.** Which “activity, negative = inhibition” value does the source give for `CCn1c(COc2ccccc2OC)nnc1SCC(=O)NC1CCCC1` here?
**A.** inactive: -2.37%

**Q.** Which Potency does the source give for `COC(=O)C(Cc1c[nH]c2ccccc12)NC(=O)c1cc(-c2ccc(OC)c(OC)c2)oc1C` (centres undefined) here?
**A.** inconclusive [inhibitor, partial curve, poor fit]

**Q.** For `Cc1cccc(OCC(=O)Nc2ccncc2)c1C`, which Potency is on record?
**A.** active: 3.16 µM

**Q.** Which activity, negative = inhibition does the source give for `COCCn1c(N)c(N(Cc2ccccc2)C(=O)c2oc3ccccc3c2C)c(=O)[nH]c1=O` here?
**A.** inactive: -9.55% [at 10 µM]

**Q.** With `CC(Cc1cccs1)NC(=S)Nc1ccccc1` (centres undefined) as the compound, how does the Potency read?
**A.** active: 7.08 µM

**Q.** For `COc1ccc(Cc2nc(C)cc(Cl)n2)cc1[N+](=O)[O-]`, which “activity, negative = inhibition” value is on record?
**A.** inactive: -12.5%

**Q.** With `CCOC(=O)c1c(NC(=S)NC(=O)c2ccco2)sc2c1CCCC2` as the compound, how does the Potency read?
**A.** inconclusive [inhibitor, full curve]

**Q.** For `COC(=O)Cc1ccc(NC(=S)N2CCN(c3ccc(F)cc3)CC2)cc1`, which Potency is on record?
**A.** inconclusive [inhibitor, single point]

**Q.** Which “activity, negative = inhibition” value does the source give for `CCOC(=O)c1c(S(=O)(=O)NCC(=O)N2CCN(c3ccc(OC)cc3)CC2)c(C)n(C)c1C` here?
**A.** inactive: 2.16%

**Q.** For `C=CCSc1nc(C)c(Cc2cccc3ccccc23)c(=O)[nH]1`, which activity, negative = inhibition is on record?
**A.** inactive: -24.6% [at 10 µM]

**Q.** With `CCc1ccc(-c2cc(C)no2)cc1S(=O)(=O)NCCc1ccccc1` as the compound, how does the Potency read?
**A.** inconclusive [inhibitor, single point]

**Q.** For `CN(CC(=O)NCCc1ccccc1)S(=O)(=O)c1cccc2nsnc12`, which Potency is on record?
**A.** inconclusive [inhibitor, single point]

**Q.** For `COc1ccc(C(=O)NC(=S)NNC(=O)c2ccc(O)cc2)cc1[N+](=O)[O-]`, which Potency is on record?
**A.** inconclusive [inhibitor, partial curve]

**Q.** With `CCCc1c(C(=O)N/N=C/c2ccccc2OCc2ccc(F)cc2)nnn1-c1nonc1N` as the compound, how does the Potency read?
**A.** inconclusive [inhibitor, partial curve]

**Q.** For `CCC(CC)c1nnc(NC(=O)c2c(-c3ccccc3)noc2C)s1`, which Potency is on record?
**A.** inconclusive [inhibitor, single point]

**Q.** With `Fc1ccc(-[n+]2nc(Nc3ccccc3)sc2-c2cccc(Cl)c2Cl)cc1` as the compound, how does the Potency read?
**A.** inconclusive [inhibitor, single point]

**Q.** For `COCCNC(=O)c1cccc(Nc2nc(-c3ccccc3)c3cc(Cl)ccc3n2)c1`, which Potency is on record?
**A.** inconclusive [inhibitor, partial curve]

**Q.** With `CC(C)CNc1nc(NC(C)(C)C)nc(Oc2ccc(=O)[nH]n2)n1` as the compound, how does the “activity, negative = inhibition” value read?
**A.** inactive: -5.88%

**Q.** Which “activity, negative = inhibition” value does the source give for `CN(Cc1cccc(-n2cccn2)c1)Cc1cn(C)nc1-c1ccccc1F` here?
**A.** inactive: 6.73%

**Q.** For `CCC(=O)c1ccc(N2CCN(C(=O)c3ccccc3)CC2)c(F)c1`, which Potency is on record?
**A.** inconclusive [inhibitor, single point]

**Q.** For `CCN(CC)S(=O)(=O)c1ccc2[nH]cc(C(=O)NCCc3ccccc3)c(=O)c2c1`, which Potency is on record?
**A.** inconclusive [inhibitor, single point]

**Q.** Which Potency does the source give for `O=C(Nc1ccccc1Cl)C1C2CCC3C(CCC21)C3(Cl)Cl` (centres undefined) here?
**A.** inconclusive [inhibitor, single point]

**Q.** With `CCOC(=O)c1nnc(-c2ccccc2)nc1Oc1ccccc1Cl` as the compound, how does the Potency read?
**A.** active: 5.01 µM

**Q.** With `Cc1cc(-c2n[nH]c(=S)n2-c2ccc(F)cc2)nn1C` as the compound, how does the activity, negative = inhibition read?
**A.** inactive: 1.29% [at 10 µM]

**Q.** For `Cc1ccc(NC(=S)NCc2cccs2)c(C)c1`, which Potency is on record?
**A.** active: 5.62 µM

**Q.** Which “activity, negative = inhibition” value does the source give for `OC/C=C/c1ccccc1` here?
**A.** inactive: -1.01%

**Q.** For `CCc1ccccc1NC(=S)NCc1cccn1C`, which Potency is on record?
**A.** active: 11.2 µM

**Q.** Which Potency does the source give for `Cc1ccc(NC(=O)Cn2cnc3cc([N+](=O)[O-])ccc3c2=O)c(Cl)c1` here?
**A.** inconclusive [activator, single point]

**Q.** For `O=C(N/N=C/c1ccc(-c2ccc(Br)cc2)o1)c1ccc2c(c1)OCO2`, which Potency is on record?
**A.** active: 10 µM

**Q.** For `Cc1nc(SCCc2ccccc2)[nH]c(=O)c1C`, which Potency is on record?
**A.** inconclusive [inhibitor, single point]

**Q.** With `CC(Cc1cccs1)NC(=S)Nc1ccc(Cl)cc1` (centres undefined) as the compound, how does the Potency read?
**A.** active: 14.1 µM

**Q.** For `CCOC(=O)c1c(CSc2ccccc2)n(C)c2cc(Br)c(OCC(O)CNC(CO)(CO)CO)cc12` (centres undefined), which Potency is on record?
**A.** inconclusive [inhibitor, single point]

**Q.** Which “activity, negative = inhibition” value does the source give for `C=CCn1c(SCC(=O)NCC2CCCO2)nc2scc(-c3ccccc3)c2c1=O` (centres undefined) here?
**A.** inactive: -2.86%

**Q.** With `Cc1ccc2nc(C)cc(N/N=C/c3ccccc3O)c2c1` as the compound, how does the Potency read?
**A.** active: 7.94 µM

**Q.** For `O=C(Nc1ccc(Oc2cccnc2)cc1)C1CCN(Cc2cc(Cl)ccc2O)CC1`, which Potency is on record?
**A.** inconclusive [inhibitor, single point]

**Q.** Which Potency does the source give for `N#C/C=C(/N)c1ccc(Br)cc1` here?
**A.** inconclusive [inhibitor, partial curve]

**Q.** Which Potency does the source give for `COc1cc(NS(=O)(=O)c2ccc(C)cc2)c2ncccc2c1` here?
**A.** active: 1 µM and active: 794 nM

**Q.** With `CC(C)c1ccc(NC(=O)CSc2n[nH]c(=O)n2C2CC2)cc1` as the compound, how does the Potency read?
**A.** inconclusive [inhibitor, partial curve, poor fit]

**Q.** Which Potency does the source give for `CN1CCN(c2nc(-c3ccc(C(C)(C)C)cc3)nc3ccccc23)CC1` here?
**A.** inconclusive [inhibitor, single point]

**Q.** With `CN1CCN(C(=S)SCC(=O)Nc2nc(-c3ccccc3)c(-c3ccccc3)o2)CC1` as the compound, how does the Potency read?
**A.** inconclusive [inhibitor, single point]

**Q.** With `COc1ccc(CC(=O)Nc2nc(-c3ccc(OC)c(OC)c3)cs2)cc1OC` as the compound, how does the Potency read?
**A.** inconclusive [inhibitor, single point]

**Q.** With `CC1(C)Cc2c(sc3[nH]c(=S)n(Cc4ccccc4)c(=O)c23)CO1` as the compound, how does the Potency read?
**A.** active: 0.891 µM

**Q.** Which Potency does the source give for `CCCCc1ccc(/C=C(\C#N)C(N)=S)s1` here?
**A.** inconclusive [inhibitor, single point]

**Q.** For `COc1cc(/C=C2/SC(N)=NC2=O)ccc1Oc1ccc([N+](=O)[O-])cc1[N+](=O)[O-]`, which Potency is on record?
**A.** inconclusive [inhibitor, single point]

**Q.** Which “activity, negative = inhibition” value does the source give for `COc1ccc(C2CCCN2C(=S)Nc2ccc(C)cc2Cl)cc1OC` (centres undefined) here?
**A.** inactive: 0.147%

**Q.** Which “activity, negative = inhibition” value does the source give for `COc1ccc(C(=O)NCc2n[nH]c(=S)n2-c2ccccc2)cc1OC` here?
**A.** inactive: -4.6%

**Q.** For `CC(=O)Nc1ccc(S(=O)(=O)Oc2ccc(C(=S)N3CCCCC3)cc2)cc1`, which Potency is on record?
**A.** inconclusive [inhibitor, single point]

**Q.** For `O=C(/C=C/c1c(Cl)nc2ccccn12)N1CCN(c2ccc(F)cc2)CC1`, which “activity, negative = inhibition” value is on record?
**A.** inactive: 8.77%

**Q.** For `O=C(CSc1ccc(-c2ccccn2)nn1)c1ccc([N+](=O)[O-])cc1`, which Potency is on record?
**A.** inconclusive [inhibitor, full curve]

**Q.** For `O=C(C#Cc1cccc([N+](=O)[O-])c1)c1ccccc1`, which Potency is on record?
**A.** active: 3.16 µM

**Q.** With `CCOC(=O)c1cn2nc(N3CCCCC3)ccc2n1` as the compound, how does the Potency read?
**A.** inconclusive [inhibitor, single point]

**Q.** For `CCOC(=O)c1c(C)oc2c1c(CN1CCN(CCO)CC1)c(O)c1ccccc12`, which Potency is on record?
**A.** inconclusive [inhibitor, partial curve]

**Q.** Which Potency does the source give for `COCCNc1nc2c(c(=O)n(C)c(=O)n2C)n1Cc1cccc(C(F)(F)F)c1` here?
**A.** active: 3.16 µM

**Q.** Which “activity, negative = inhibition” value does the source give for `COc1cc([N+](=O)[O-])ccc1NC(=O)c1cccc(NC(=O)C(C)C)c1` here?
**A.** inactive: -0.627%

**Q.** For `Cc1c(O)ccc(/C=N/Nc2ncccc2[N+](=O)[O-])c1O`, which Potency is on record?
**A.** inconclusive [inhibitor, single point]

**Q.** For `COc1ccccc1C(=O)Nc1ccc2c(c1)OCCO2`, which Potency is on record?
**A.** inconclusive [inhibitor, single point]

**Q.** Which Potency does the source give for `CCc1cc(C(=O)NNC(=S)NC2CCCCC2)cs1` here?
**A.** active: 10 µM

**Q.** Which Potency does the source give for `O=C(CCCN1C(=O)/C(=C/c2cccs2)SC1=S)Nc1ccc(O)c(C(=O)O)c1` here?
**A.** inconclusive [inhibitor, partial curve]

**Q.** With `Cc1ccc(C(=O)NC(=S)Nc2ccc3c(c2)OCCO3)c(C)c1` as the compound, how does the Potency read?
**A.** inconclusive [inhibitor, single point]

**Q.** With `CC(C)NC(=O)N1CCC2(CC1)CCN(C(=O)c1cccc(F)c1)CC2` as the compound, how does the “activity, negative = inhibition” value read?
**A.** inactive: 5.98%

**Q.** Which Potency does the source give for `CCC1CC=CC2C1C(=O)N(Cc1ccccc1)C2c1ccc(OC)c(Cl)c1` (centres undefined) here?
**A.** inconclusive [inhibitor, single point]

**Q.** For `COc1ccc(NC(=S)NCc2cccs2)cc1`, which Potency is on record?
**A.** inconclusive [inhibitor, single point]
